Results on 54 sequences are retold here after paper PMC7819943, “Rice protein-binding microarrays: a tool to detect cis-acting elements near promoter regions in rice”.

The list shows a part of the results.

This test has as its target T1, OsWOX13 (Oryza sativa, UniProt Q5QMM3 1-267).
T1 sequence: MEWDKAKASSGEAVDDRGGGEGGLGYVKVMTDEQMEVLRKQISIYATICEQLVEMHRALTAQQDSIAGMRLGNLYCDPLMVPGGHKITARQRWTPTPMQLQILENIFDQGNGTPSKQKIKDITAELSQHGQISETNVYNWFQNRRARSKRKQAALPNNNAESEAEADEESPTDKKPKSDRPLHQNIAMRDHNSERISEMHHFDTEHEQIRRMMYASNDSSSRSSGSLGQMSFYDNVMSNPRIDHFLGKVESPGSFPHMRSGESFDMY
Put plainly: protein-binding microarray (RPBM); PBS, 2% BSA, 51.3 ng/ul salmon testes DNA, 50 uM zinc acetate, 200 nM TF, 25 C, 1 h; high values mean tight binding. Particulars: protein: recombinant; tags: N-terminal polyhistidine and DsRed monomer fusion (pET32a); label: CyDye5-dUTP incorporated in the synthesized complementary strand; 3' TTTTT single-stranded linker to array surface; dsDNA, one strand shown. The method in brief:
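Transcription factors, each fused N-terminally to a polyhistidine tag and DsRed, were expressed in E. coli BL21-CodonPlus and purified on Ni–NTA. A custom Agilent array was made double-stranded by primer extension with Cy5-dUTP and blocked with 2% BSA. It was incubated with 200 nM protein in PBS, 2% BSA, salmon testes DNA and 50 µM zinc acetate at 25 °C for 1 h, then washed. The binding signal is per-feature fluorescence intensity (arbitrary units) read on an Axon 4000B scanner.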
Turning to “CAATGATTAGCAAATTAACTATTGCCTTAACAACATTAATCGGAGTCACCTAGTGCAG”, the binding signal was 23300 fluorescence intensity (a.u.).
Consider “ATGATTTGACAATGTGGTGCTACAAACCTACAGTAAACATCGGAGTCACCTAGTGCAG”, for which the binding signal was 22700 fluorescence intensity (a.u.).
Take “GAGACGAATCTTTTAAGCCTAATTAGTCCGTGATTAGCCACGGAGTCACCTAGTGCAG”: the binding signal was 8940 fluorescence intensity (a.u.).
In the case of “AACAATAGACAATTGGATAATGGTTTTACCGTTGTAGTTACGGAGTCACCTAGTGCAG” it was 6620 fluorescence intensity (a.u.).
With “GTTTTGTTTATTCTGATTACAGGATGTTCCTGACCTGGCCCGGAGTCACCTAGTGCAG”, the binding signal was 4620 fluorescence intensity (a.u.).
As to “ACCATCAATCAATGGAGACAAACCTCTGCACCTCCTCCAACGGAGTCACCTAGTGCAG”, the binding signal was 18400 fluorescence intensity (a.u.).
Regarding “TAATCATGATTTATATCTTATACATTTGTATACAAGTTTTCGGAGTCACCTAGTGCAG”, the binding signal was 5920 fluorescence intensity (a.u.).
In the case of “CTGATTAAGTTAATAGCGTGTCACAAATGAGAACCTAGGTCGGAGTCACCTAGTGCAG” it was 27900 fluorescence intensity (a.u.).
For “AAATAATTAAAATTATTAAAACAATGCATAACTTTTAAGCCGGAGTCACCTAGTGCAG”, the binding signal is 21200 fluorescence intensity (a.u.).
“CTTCGATTGATCCGATCTCTCGTCTCGTCTCGTCCTCCCCCGGAGTCACCTAGTGCAG”: the binding signal is 17800 fluorescence intensity (a.u.).
On to “GCACTAGTGATTGGAACAATATTAATTTCAGAAACATTGCCGGAGTCACCTAGTGCAG”, for which the binding signal is 32700 fluorescence intensity (a.u.).
Consider “AATGACAGGTTCTTGAGCTAACCAGATCACATTGTCTTTGCGGAGTCACCTAGTGCAG”, for which the binding signal is 6500 fluorescence intensity (a.u.).
The result for “CCAGGTGATTAATACCATATCATGAGTTGGCAATGCTGAACGGAGTCACCTAGTGCAG” reads 22500 fluorescence intensity (a.u.); that for “AATAATTGGTTATAGCTTGTTGAGCAAAGGCCGAAATATTCGGAGTCACCTAGTGCAG”, 25900 fluorescence intensity (a.u.); that for “TGCCATCTAATGCCCTTGATTGAATTAATCATAGAGTCACCGGAGTCACCTAGTGCAG”, 41100 fluorescence intensity (a.u.).
Regarding “TATTTAAATTATGGTGTTATAATATATGAATAAACAGTTTCGGAGTCACCTAGTGCAG”, the binding signal was 10200 fluorescence intensity (a.u.).
As for “GATATGATGGGTACAAACTGTTATAAACTAACATGTCTATCGGAGTCACCTAGTGCAG”, the binding signal was 5970 fluorescence intensity (a.u.).
With “ACGGGTTAATTTTCAGGATCAGGCTTGACAAGTCTAGCATCGGAGTCACCTAGTGCAG”, the binding signal is 5380 fluorescence intensity (a.u.).
Turning to “CGAGAATGGCTAAATGTCAATTTTCTCATGCTAGAGAGCCCGGAGTCACCTAGTGCAG”, the binding signal is 5140 fluorescence intensity (a.u.).
Turning to “GCAGCCTACGTGACTTGATTATTAACGAGAATCCTGTGTCCGGAGTCACCTAGTGCAG”, the binding signal is 4190 fluorescence intensity (a.u.).
For “CAATAAATTTTAACTAGTGAACCTTTATCGGGTTACCACCCGGAGTCACCTAGTGCAG”, the binding signal is 5680 fluorescence intensity (a.u.).
For “CCGAGATTAATCGATTACTATTGGGTATGTGGTATCCATACGGAGTCACCTAGTGCAG”, the binding signal was 11400 fluorescence intensity (a.u.).
The result for “CAAAACCTGCACCTGATTGAACTACTCAATGAGGCTGTATCGGAGTCACCTAGTGCAG” reads 21400 fluorescence intensity (a.u.); that for “AAAGGCAAATTTTGCCGATGATTGTTTGCTTATGCATCGCCGGAGTCACCTAGTGCAG”, 12000 fluorescence intensity (a.u.).
The result for “TTCTCCCATTTAATTACATAAGTTGGGTTTGAAGTAGAGTCGGAGTCACCTAGTGCAG” reads 4940 fluorescence intensity (a.u.); that for “GTAGGTTGATTTTATGATTTGCGTTACATACATCCTTATTCGGAGTCACCTAGTGCAG”, 4570 fluorescence intensity (a.u.); that for “GGTGTGGTGGTGGTGGGGATGAGGAGCGCGATTGGGAGAGCGGAGTCACCTAGTGCAG”, 3190 fluorescence intensity (a.u.).
Regarding “ATCTATAATTAGAGAATGTTTACTGTAGCATCACATAGGCCGGAGTCACCTAGTGCAG”, the binding signal is 24400 fluorescence intensity (a.u.).
The result for “TTCTTGTTAGCAACAAATTGACATATTGCTCGGCACATCCCGGAGTCACCTAGTGCAG” reads 12900 fluorescence intensity (a.u.).
The result for “TTTAATATTTAATTAATCATGCGTTAGTACCTATTTAGGTCGGAGTCACCTAGTGCAG” reads 14400 fluorescence intensity (a.u.); that for “ACTTTCAATTGACAGAATTACGTCTGGAACATGAAGTTATCGGAGTCACCTAGTGCAG”, 29000 fluorescence intensity (a.u.); that for “AACTGAAGCCTTAATTAATTTCTCTATCCAGGTAGCGCCCCGGAGTCACCTAGTGCAG”, 11100 fluorescence intensity (a.u.).
With “GTTTCCTGACGTTTGATTTGCTTTGTATTGCAGGCTGTGACGGAGTCACCTAGTGCAG”, the binding signal is 4990 fluorescence intensity (a.u.).
As to “AGAGTTAAAATAGACTGCGGGCCTGTTTAGTTCATACCAACGGAGTCACCTAGTGCAG”, the binding signal was 4180 fluorescence intensity (a.u.).
In the case of “TGATTGTATAATACAATTACAATATGATTGTATTTGGAAGCGGAGTCACCTAGTGCAG” it was 4380 fluorescence intensity (a.u.); in that of “TATTTAATTTATCTCTCATTACATTTTGAATATATGCAGACGGAGTCACCTAGTGCAG”, 30400 fluorescence intensity (a.u.); in that of “TATTACATGCAAATTATAGTGTAATTATACTACGATTGTACGGAGTCACCTAGTGCAG”, 14900 fluorescence intensity (a.u.).
For “ATCTAATTTTGGAATTTTAAGTTTAAAACAAGTCTCCAACCGGAGTCACCTAGTGCAG”, the binding signal was 13500 fluorescence intensity (a.u.).
In the case of “GGCAAATTTTAGTAGGGTAACAATCCAAATTGGCCCAGAGCGGAGTCACCTAGTGCAG”, the binding signal is 4180 fluorescence intensity (a.u.).
As to “TTGAATGACAATTAGTTCGAAACCAGAACATACTAATGACCGGAGTCACCTAGTGCAG”, the binding signal was 20600 fluorescence intensity (a.u.).
On to “ATCCCGAGTACATCAATAGTTCAATCATCAAATACAGGAACGGAGTCACCTAGTGCAG”, for which the binding signal was 3230 fluorescence intensity (a.u.).
Consider “CACTTGGTAATTACTTCTACTATGTCATCCTTATCATAATCGGAGTCACCTAGTGCAG”, for which the binding signal was 17700 fluorescence intensity (a.u.).
As to “TAATATCACCGTAAATTTACCCTGTTAGGATCAGTACAAACGGAGTCACCTAGTGCAG”, the binding signal is 5610 fluorescence intensity (a.u.).
In the case of “AACAAAATTCTAACAGTTTGACAGGATAGCACCAAGAGCACGGAGTCACCTAGTGCAG” it was 4590 fluorescence intensity (a.u.); in that of “CTAAACATAATTAGCATACTATGACATCAATAGAAACGTTCGGAGTCACCTAGTGCAG”, 35100 fluorescence intensity (a.u.).
Turning to “TGTTATAGTGTAATTATATATAATTACATTATAGCATATACGGAGTCACCTAGTGCAG”, the binding signal is 21600 fluorescence intensity (a.u.).
In the case of “TTGATTAATTCATTAATCGATCTTGCTCCTCTCGCGGCCCCGGAGTCACCTAGTGCAG” it was 38500 fluorescence intensity (a.u.); in that of “AAACTATATAATTAGAAACACGAGGATGATAATGTTTGGTCGGAGTCACCTAGTGCAG”, 4910 fluorescence intensity (a.u.).
Turning to “GTTAGACTGACATGTGGGGCAGCGTGGGTTCCACCATTATCGGAGTCACCTAGTGCAG”, the binding signal was 6330 fluorescence intensity (a.u.).
For the sequence “AATCAATCAATCTGACGGAAACCACGCATTTTGCAACTTGCGGAGTCACCTAGTGCAG”, the binding signal is 46300 fluorescence intensity (a.u.).
Take “CTAGTTTACACATTGATTATTATCGACCGTGAATATTTTACGGAGTCACCTAGTGCAG”: the binding signal is 5360 fluorescence intensity (a.u.).
In the case of “GTAATTACTTAATCCATCCCCTATTCAAAAGTTTGTGAATCGGAGTCACCTAGTGCAG” it was 5790 fluorescence intensity (a.u.).
Take “TTTAGGGAATTGCAGTTGACTGACTTTAGCAAATACGAACCGGAGTCACCTAGTGCAG”: the binding signal is 6470 fluorescence intensity (a.u.).
Take “CTCCTTGATCTAATTAGCACGCACTACTATATCTCACCTACGGAGTCACCTAGTGCAG”: the binding signal was 26600 fluorescence intensity (a.u.).
